Data as given in ChEMBL document CHEMBL1961873, “Compounds: GSK PKIS; Assays: Nanosyn kinase panel” (2012).
For part of these data: Most of the strong results are listed elsewhere, so they are rarer here than in the full data. This is a selection; strong and weak results do not stand in their true shares.

Legend:
[1] = target: Serine/threonine-protein kinase PAK 6 (Homo sapiens) (UniProt Q9NQU5); conditions: at 1 µM;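 also: values are mean percent inhibition of PAK6 kinase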
[2] = tested on: Tyrosine-protein kinase ABL1 (Homo sapiens), P00519 [E255K]; conditions: at 0.1 µM
[3] = tested on: Tyrosine-protein kinase ABL1 (Homo sapiens), P00519 [E255K]; conditions: at 1 µM
[4] = tested on: Tyrosine-protein kinase ABL1 (Homo sapiens), P00519 [H396P]; conditions: at 0.1 µM
[5] = tested on: Tyrosine-protein kinase ABL1 (Homo sapiens), P00519 [H396P]; conditions: at 1 µM
[6] = tested on: Tyrosine-protein kinase ABL1 (Homo sapiens), P00519 [M351T]; conditions: at 0.1 µM
[7] = tested on: Tyrosine-protein kinase ABL1 (Homo sapiens), P00519 [M351T]; conditions: at 1 µM
[8] = tested on: Tyrosine-protein kinase ABL1 (Homo sapiens), P00519 [Q252H]; conditions: at 0.1 µM
[9] = tested on: Tyrosine-protein kinase ABL1 (Homo sapiens), P00519 [Q252H]; conditions: at 1 µM
[10] = tested on: Tyrosine-protein kinase ABL1 (Homo sapiens), P00519 [T315I]; conditions: at 0.1 µM

UniProt Q9NQU5, sequence (Q9NQU5 whole entry, looked up): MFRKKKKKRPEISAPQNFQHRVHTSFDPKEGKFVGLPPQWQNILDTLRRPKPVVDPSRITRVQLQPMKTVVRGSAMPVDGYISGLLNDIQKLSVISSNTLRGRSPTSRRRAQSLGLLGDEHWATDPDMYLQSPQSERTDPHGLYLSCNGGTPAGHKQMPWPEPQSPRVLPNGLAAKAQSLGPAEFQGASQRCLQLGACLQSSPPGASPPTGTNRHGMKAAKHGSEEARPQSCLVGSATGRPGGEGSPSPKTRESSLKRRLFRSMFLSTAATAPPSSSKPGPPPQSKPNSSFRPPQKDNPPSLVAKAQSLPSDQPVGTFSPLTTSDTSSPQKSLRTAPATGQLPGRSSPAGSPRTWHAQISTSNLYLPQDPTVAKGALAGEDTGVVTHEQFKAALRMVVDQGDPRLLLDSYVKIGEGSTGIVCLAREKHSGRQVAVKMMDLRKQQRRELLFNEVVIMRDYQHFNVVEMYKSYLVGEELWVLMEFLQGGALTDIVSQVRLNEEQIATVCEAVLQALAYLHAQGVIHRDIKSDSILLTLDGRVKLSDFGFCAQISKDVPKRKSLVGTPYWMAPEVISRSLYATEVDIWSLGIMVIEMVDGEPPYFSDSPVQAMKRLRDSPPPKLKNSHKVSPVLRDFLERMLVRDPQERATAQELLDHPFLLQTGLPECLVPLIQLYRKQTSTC

## CS(=O)(=O)c1ccc(Oc2nccc(-c3c(-c4ccc(F)cc4)ncn3C3CCNCC3)n2)cc1
[1]
  inhibition: -7.17%
[2]
  inhibition: 3.59%
[3]
  inhibition: 4.16%
[4]
  inhibition: 4.76%
[5]
  inhibition: 4.88%
[6]
  inhibition: 2%
[7]
  inhibition: 3.5%
[8]
  inhibition: 4.49%
[9]
  inhibition: 5.16%
[10]
  inhibition: 3.06%

## Fc1ccc(Oc2nccc(-c3c(-c4ccc(F)cc4)ncn3C3CCNCC3)n2)cc1
[1]
  inhibition: -1.21%
[2]
  inhibition: -4.08%
[3]
  inhibition: 0.35%
[4]
  inhibition: 2.33%
[5]
  inhibition: 2.64%
[6]
  inhibition: 0.1%
[7]
  inhibition: 0.1%
[8]
  inhibition: 1.9%
[9]
  inhibition: 0.73%
[10]
  inhibition: -1.07%

## Cc1cccc(Oc2nccc(-c3c(-c4ccc(F)cc4)ncn3C3CCNCC3)n2)c1C
[1]
  inhibition: -6.34%
[2]
  inhibition: 2.57%
[3]
  inhibition: 3.66%
[4]
  inhibition: 4.88%
[5]
  inhibition: 2.84%
[6]
  inhibition: 0.42%
[7]
  inhibition: 1.41%
[8]
  inhibition: 3.26%
[9]
  inhibition: 2.5%
[10]
  inhibition: 3.22%

## O=C1NC(=O)C(c2ccccc2)=C1Nc1ccccc1
[1]
  inhibition: -4.76%
[2]
  inhibition: 3.1%
[3]
  inhibition: 7.6%
[4]
  inhibition: 5.19%
[5]
  inhibition: 9.3%
[6]
  inhibition: 1.89%
[7]
  inhibition: 8.42%
[8]
  inhibition: 5.39%
[9]
  inhibition: 6.71%
[10]
  inhibition: 2.94%

## COc1ccccc1C1=C(Nc2ccccc2)C(=O)NC1=O
[1]
  inhibition: 2.59%
[2]
  inhibition: 0.25%
[3]
  inhibition: 7.26%
[4]
  inhibition: 5.12%
[5]
  inhibition: 17.5%
[6]
  inhibition: 4.29%
[7]
  inhibition: 16.6%
[8]
  inhibition: 4.69%
[9]
  inhibition: 16.8%
[10]
  inhibition: 3.65%

## COc1ccccc1Oc1nccc(-c2c(-c3ccc(F)cc3)ncn2C2CCNCC2)n1
[2]
  inhibition: 1.9%
[3]
  inhibition: 2.74%
[4]
  inhibition: 5.02%
[5]
  inhibition: 5.18%
[6]
  inhibition: -1.59%
[7]
  inhibition: 2.32%
[8]
  inhibition: 3.57%
[9]
  inhibition: 4.17%
[10]
  inhibition: 2.9%

## O=C1NC(=O)C(c2cccc([N+](=O)[O-])c2)=C1Nc1cc(Cl)c(O)c(Cl)c1
[1]
  inhibition: 3.31%
[2]
  inhibition: 0.35%
[3]
  inhibition: 1.28%
[4]
  inhibition: 2.05%
[5]
  inhibition: 0.91%
[6]
  inhibition: -0.57%
[7]
  inhibition: 1.66%
[8]
  inhibition: 1.36%
[9]
  inhibition: 0.95%
[10]
  inhibition: 2.36%
